From PMC4336329 (PLoS ONE, 2015)
Out of some 310,000 compounds screened, about 14,000 (4.5%) showed an effect of 50% or more. Effects have a minus sign here. The list shows a part of the results. Where a SMILES comes first, the peptide text is derived from it. The star is where a group is joined. OBn = c1ccc(CO*)cc1

What follows are compounds tested against human ether-à-go-go-related gene (hERG) potassium channel (human, UniProt Q12809) (assay: primary screen, population patch clamp on CHO cells stably expressing hERG).
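Note: peak tail current of the secondary pulse compared with the same well before compound.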

Sequence of human ether-à-go-go-related gene (hERG) potassium channel (Q12809 whole entry, looked up): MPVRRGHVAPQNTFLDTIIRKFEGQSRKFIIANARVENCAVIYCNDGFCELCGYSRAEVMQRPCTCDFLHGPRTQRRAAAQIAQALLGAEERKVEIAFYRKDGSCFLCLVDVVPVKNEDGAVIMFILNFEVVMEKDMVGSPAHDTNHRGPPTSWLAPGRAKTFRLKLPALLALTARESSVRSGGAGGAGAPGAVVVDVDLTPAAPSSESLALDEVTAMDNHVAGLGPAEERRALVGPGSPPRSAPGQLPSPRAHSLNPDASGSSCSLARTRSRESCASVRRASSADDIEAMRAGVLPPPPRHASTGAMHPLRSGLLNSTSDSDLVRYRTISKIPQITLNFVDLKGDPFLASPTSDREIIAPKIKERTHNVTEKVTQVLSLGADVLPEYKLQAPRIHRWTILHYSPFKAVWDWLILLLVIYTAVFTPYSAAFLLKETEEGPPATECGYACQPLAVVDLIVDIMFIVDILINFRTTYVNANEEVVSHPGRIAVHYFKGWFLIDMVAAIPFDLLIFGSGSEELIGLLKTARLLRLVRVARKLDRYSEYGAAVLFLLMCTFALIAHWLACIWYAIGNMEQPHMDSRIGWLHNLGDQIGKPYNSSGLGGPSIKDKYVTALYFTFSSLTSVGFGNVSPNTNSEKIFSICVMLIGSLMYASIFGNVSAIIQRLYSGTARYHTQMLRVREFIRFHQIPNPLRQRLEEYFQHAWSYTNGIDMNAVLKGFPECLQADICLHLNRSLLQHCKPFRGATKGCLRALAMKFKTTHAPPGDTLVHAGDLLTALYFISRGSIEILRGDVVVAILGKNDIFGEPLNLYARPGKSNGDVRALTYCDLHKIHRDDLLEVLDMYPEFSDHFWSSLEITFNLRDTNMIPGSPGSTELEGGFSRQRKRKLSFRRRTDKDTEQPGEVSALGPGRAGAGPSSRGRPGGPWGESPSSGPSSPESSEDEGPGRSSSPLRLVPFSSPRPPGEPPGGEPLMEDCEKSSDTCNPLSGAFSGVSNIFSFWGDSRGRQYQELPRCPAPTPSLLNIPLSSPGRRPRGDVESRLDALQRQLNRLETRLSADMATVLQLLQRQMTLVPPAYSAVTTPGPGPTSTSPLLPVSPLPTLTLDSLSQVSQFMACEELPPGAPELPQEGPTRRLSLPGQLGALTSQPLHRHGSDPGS

| SMILES | hERG current change (%, negative = inhibition) at 10uM [%] |
| --- | --- |
| Cc1ccc(CN2CCSc3ccc(C(=O)NCc4cccnc4)cc32)cc1 | -2.7 |
| COc1ccc(OC)c(NC(=O)NCCc2c[nH]c3ccccc23)c1 | 1.79 |
| O=C(c1cc(-c2cccc(O)c2)on1)N1CCN(C(c2ccccc2)c2ccccc2)CC1 | 10.8 |
| COc1ccc(OC)c(S(=O)(=O)NCCc2csc(-c3cccnc3)n2)c1 | 4.92 |
| Cc1ccc(N(CC(=O)Nc2ccc(-c3nc4ccc(C)cc4s3)cc2)S(C)(=O)=O)cc1 | 19.3 |
| COC(=O)c1cc(C)cc(=O)o1 | 0.996 |
| COc1cc(OC)c(OC)cc1CN1CCCC(C(=O)c2sccc2C)C1 (stereo not drawn) | -63.4 |
| CC(=O)N=c1sc2cc(C)ccc2n1C | 4.8 |
| Cc1ccc(C2C(C(=O)c3sc(C)nc3C)=C(O)C(=O)N2CCN(C)C)o1 (stereo not drawn) | 0.959 |
| COc1ccc(S(=O)(=O)N2CCCOC2CNC(=O)C(=O)NCCCn2ccnc2)cc1OC (stereo not drawn) | 11.5 |
| CCC(C)C(N)C(=O)NC(CCC(=O)OCc1ccccc1)C(N)=O.Cl (stereo not drawn) (H-Ile-Glu(OBn)-NH2; configuration not given here) | 10.2 |
| CN(C)/C(=N\S(=O)(=O)c1ccccc1)c1ccc(F)cc1 | 18.9 |
| Cc1ccccc1NC(=O)Nc1cnccn1 | -27.3 |
| CN(CC(=O)NCCc1ccc(S(N)(=O)=O)cc1)Cc1c(F)cccc1Cl | 6.04 |
| Cc1nc2c(C(=O)O)cnn2c(C)c1Cc1ccccc1F | -1.35 |
| COc1nnc(-c2ccc(N3CCOCC3)c(NC(C)=O)c2)c2ccccc12 | -1.4 |
| Cc1cc(CN(C)C(=O)CC2C(=O)NCCN2Cc2c(F)cccc2Cl)on1 (stereo not drawn) | 22.3 |
| Cn1c(=O)c2sccc2n2c(CCCC(=O)NCc3cccnc3)nnc12 | 22.8 |
| OC(CCc1ccncc1)COc1ccccc1 (stereo not drawn) | 3.52 |
| Cc1ccc(NC(=O)CN2C(=O)CCSc3ccc(S(=O)(=O)N4CCCC4)cc32)cc1 | 19.6 |
| Cc1ccc(S(=O)(=O)Oc2ccc(C(c3c(C)[nH][nH]c3=O)c3c(C)[nH][nH]c3=O)cc2)cc1 | -1.83 |
| Cc1nn(-c2ccccc2)c(Cl)c1C(=O)NNC(=O)c1ccncc1 | 3.87 |
| CCc1cc(C(=O)N=Nc2c(O)[nH]c3ccc([N+](=O)[O-])cc23)c2ccccc2n1 | 3.87 |
| CN1CCOCCOCCN(C)C1=O | 8.49 |
| CSc1nc(C)cc(Oc2ccc(OCCOc3ccccc3)nn2)n1 | -23.2 |
| O=C(NCc1ccccc1)c1onc(CSc2ccncc2)c1C(=O)NCc1ccccc1 | 6.77 |
| CN1CCN(CCCNC(=O)Nc2ccc([N+](=O)[O-])cc2)CC1 | -7.46 |

| SMILES | hERG current change (%, negative = inhibition) at 10uM [%] |
| --- | --- |
| Cc1cccnc1NC(=O)C1COc2ccccc2O1 (stereo not drawn) | 32.5 |
| OCCC1CCCCN1CC(O)COCc1ccc(Cl)cc1 (stereo not drawn) | -7.29 |
| Cc1n[nH]c(C)c1S(=O)(=O)N1CCCC(C(=O)Nc2ccc(Br)cc2)C1 (stereo not drawn) | 15 |
| CCCCn1c(N)c(N(CC(C)C)C(=O)CCNC(=O)c2ccccc2Cl)c(=O)[nH]c1=O | -2.37 |
| Oc1ccc(C[C@H]2CNCCN2CCCCC2CCCCC2)cc1 | -26.1 |
| Cc1ccc(C)c(N(C(=O)c2csnn2)C(C(=O)NC2CCCCC2)c2ccncc2)c1 (stereo not drawn) | 10.8 |
| COc1ccc(C2=NOC(C(=O)NCCCN3CCOCC3)C2)cc1 (stereo not drawn) | 11.3 |
| COC(=O)c1c(C)noc1-c1snnc1C | 19.5 |
| COc1ccc(CN(C)Cc2cc(=O)oc3cc(C)c(C(C)C)cc23)cc1OC | 8.72 |
| O=C(/C=C/c1ccccc1)N/C(=C/c1ccccc1)C(=O)Nc1cccc(C(=O)O)c1 | 12.6 |
| CCOC(=O)CSc1nc2c(c(=O)[nH]c(=O)n2C)n1C/C=C(/C)Cl | -43.7 |
| COc1ccccc1OCC(=O)Nc1ccc(S(=O)(=O)N2CCOCC2)cc1 | -6.44 |
| COc1cccc(-c2nnc(NC(=O)c3cccs3)s2)c1 | 23 |
| Cc1[nH]nc2c1C(Cc1ccccc1)C(C#N)=C(N)O2 (stereo not drawn) | -5.54 |
| O=C(NCCCCc1ccccc1)c1ccccc1Cl | -9.21 |
| Cc1ccc(CN(C(=O)c2ccc([N+](=O)[O-])cc2)C2CCS(=O)(=O)C2)o1 (stereo not drawn) | -38.8 |
| CCCNc1c(NS(=O)(=O)c2ccc3c(c2)CCCC3)c(=O)oc2ccccc12 | 8.8 |
| CCN(CC(=O)NCc1ccc(Cl)cc1)C(=O)c1ccc(S(=O)(=O)NCc2ccco2)cc1 | -54.9 |
| COCCNC(=S)N=Nc1c(O)[nH]c2ccc([N+](=O)[O-])cc12 | -2.41 |
| CCCCn1c(N)c(N(CC(C)C)C(=O)c2cccc(S(=O)(=O)N3CCCCCC3)c2)c(=O)[nH]c1=O | -0.0958 |
| CC(C(=O)NCC1CCCO1)c1ccc([N+](=O)[O-])cc1 (stereo not drawn) | -7.86 |
| CSC[C@H](NC(=O)Cc1c(C)c2cc3c(C)c(C)oc3cc2oc1=O)C(=O)N[C@@H](Cc1ccccc1)C(=O)O | 1.76 |
| O=C(NCc1ccccc1)C1=C[C@@H](c2coc3ccccc3c2=O)C[C@@H](OCCCCO)O1 | -83.1 |
| COc1cccc(N2C(=O)NC(=O)/C(=C/c3ccc4c(c3)Cc3ccccc3-4)C2=O)c1 | 25 |
| O=C(CSCc1ccccc1)Nc1ccc(F)cc1F | 3.55 |
| COP(=O)(OC)C(Nc1ccc(Cl)cc1)c1ccccc1 (stereo not drawn) | 6.08 |
| COc1cc(C(=O)OCn2nnc3ccccc3c2=O)cc(OC)c1OC | 4.44 |
